The subject of this assay is 485176-168-R4-J1-PDC spheroids with HUVEC/MSC, viability. The assay can be described thus: Anticancer human tumor 485176-168-R4-J1-PDC patient-derived pancreatic adenocarcinoma cell line growth inhibition [GQUAD]. To be noted: stronger effect = lower value. An excerpt:
DNA G-quadruplex Stabilizer Agents in Combinations in Complex Spheroids
A high-throughput screen of multi-cell type tumor spheroids was designed to identify active combinations of DNA G-quadruplex stabilizer agents and targeted small molecules. Complex spheroids include a stromal component modeled by human endothelial cells (HUVEC) and fibroblasts modeled by human mesenchymal stem cells (MSCs). The concentration ranges selected for each drug and investigational agent were based upon clinically achievable concentrations if the clinical Cmax of the agent was known.
Compounds. The drugs and investigational agents: pidnarulex (CX-5461; NSC782164), APTO-253 (NSC789042), BRACO-19 (NSC847499), peposertib (NSC802822), ceralasertib (NSC780249), elimusertib (NSC800525), camonsertib (NSC841442), AZD-1390 (NSC803789), olaparib (NSC753686), talazoparib (NSC767125), ART-558 (NSC835418), sotorasib (NSC818433), MRTX-1133 (NSC836407), SN-38 (NSC673596), topotecan (NSC609699), etoposide (NSC141540), doxorubicin (NSC123127), gemcitabine (NSC613327), 5-fluorouracil (NSC19893), paclitaxel (NSC125973), vemurafenib (NSC761431), panobinostat (NSC761190), R-306465 (JNJ-16241199; NSC773264), adavosertib (NSC754352), TP-3654 (NSC805149), carboplatin (NSC241240), KSQ-4279 (NSC840948), and staurosporine (NSC755774) were obtained from the National Cancer Institute (NCI) Developmental Therapeutics Program Chemical Repository (34). The FDA-approved anticancer drug set is available from the NCI Developmental Therapeutics Program. […] The stock solutions were prepared in dimethyl sulfoxide (DMSO, Sigma-Aldrich, St. Louis, MO, cat. D2650) at 800-fold the tested concentration and stored at -70 degrees C prior to their use. All drugs and investigational agents were tested over a range starting from a high concentration at or near the clinical Cmax and decreasing in half-log increments. If the clinical Cmax for an agent had not been determined, the highest concentration tested was 10 microM.
2.3 Cell Culture. All cells were maintained in an incubator at 37 degrees C and 5% CO2 with 95% humidity. The PDC lines were cultured according to standard operating procedures established by the NCI PDMR. All PDCs were thawed and cultured in Matrigel-coated flasks prepared with a working solution of 1X Ham's F-12 nutrient mix, without supplementation (Invitrogen, cat. 11765054), 100 U/mL penicillin-streptomycin (Invitrogen, cat. 15140122), and 2.5% Matrigel (Corning Inc., cat. 354248) for the first three passages. […]

Certain results were filed several times, with different values. The list is limited to them. An entry can have further records. Values given together repeat one measurement in other runs, samples, wells, individuals or studies. Counts like (3×) count equal records among those shown.
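Note: spheroids exposed to compounds for seven days before readout; percent viability relative to DMSO vehicle control wells as 100%.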

For the compound `CN(C)c1ccc(Nc2c3ccc(NC(=O)CCN4CCCC4)cc3nc3cc(NC(=O)CCN4CCCC4)ccc23)cc1`, the viability, T/C is 94.5, 107, 121, 106 (2×), 95.4, 94.6, 98.2, 92.2, 95.7, 91.8, 100% (compound alone 0.1 µM) and 89.5, 99.6, 78.8, 101 (2×), 98.3, 103, 90.9, 95.7, 105, 94.5, 96.6% (compound alone 1 µM).

Regarding `Cc1[nH]c2ccc(F)cc2c1-c1nc2c3cccnc3c3ncccc3c2[nH]1`, the viability, T/C is, setting by setting: (compound alone 0.0316 µM) 101 (3×), 92.2, 95.4, 93.5, 112, 100, 84.9, 87.1, 92, 93.2%; (compound alone 3.16 µM) 68.9, 79.7, 83.7, 81.3, 67.9, 82.4 (2×), 82.6, 73.8, 99, 102, 87.3%.

Source of the values: PubChem BioAssay AID2060509 (Molecular Pharmacology Branch, DTP, NCI, 2025).
